The list shows a part of the results.
Columns and labels:
Assay in all cases: glycan array binding signal (z-score within array); higher = stronger binding
Conditions in all cases: glycan notation: IUPAC condensed, linker removed
[1] = target: Fuc(a1-2)Gal(b1-4)GlcNAc(b1-3)Gal(b1-4)GlcNAc(b1-2)Man(a1-3)[Fuc(a1-2)Gal(b1-4)GlcNAc(b1-3)Gal(b1-4)GlcNAc(b1-2)Man(a1-6)]Man(b1-4)GlcNAc(b1-4)GlcNAc
In short: (§1)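 Columns mapping to the same glycan were averaged after glycan names were converted to IUPAC-condensed notation. The data come from 3228 arrays in the Consortium for Functional Glycomics database, limited to those with an available protein sequence. Binding is reported as a within-array Z-score averaged across arrays of one protein sequence and across linkers.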

[2] = target: Fuc(a1-2)Gal(b1-4)GlcNAc(b1-3)Gal(b1-4)GlcNAc(b1-3)Gal(b1-4)GlcNAc
In short: as §1

[3] = target: Fuc(a1-2)Gal(b1-4)GlcNAc(b1-3)GalNAc
In short: as §1

[4] = target: Fuc(a1-2)Gal(b1-4)GlcNAc(b1-3)[Fuc(a1-2)Gal(b1-4)GlcNAc(b1-6)]GalNAc
In short: as §1

[5] = target: Fuc(a1-2)Gal(b1-4)GlcNAc(b1-3)[Fuc(a1-3)[Gal(b1-4)]GlcNAc(b1-6)]Gal(b1-4)Glc
In short: as §1

[6] = target: Fuc(a1-2)Gal(b1-4)GlcNAc(b1-6)GalNAc
In short: as §1

[7] = target: Fuc(a1-2)Gal(b1-4)GlcNAc6S
In short: as §1

[8] = target: Fuc(a1-2)Gal(b1-4)[Fuc(a1-3)]GlcNAc
In short: as §1

[9] = target: Fuc(a1-2)Gal(b1-4)[Fuc(a1-3)]GlcNAc(b1-2)Man(a1-3)[Fuc(a1-2)Gal(b1-4)[Fuc(a1-3)]GlcNAc(b1-2)Man(a1-6)]Man(b1-4)GlcNAc(b1-4)[Fuc(a1-6)]GlcNAc
In short: as §1

[10] = target: Fuc(a1-2)Gal(b1-4)[Fuc(a1-3)]GlcNAc(b1-2)[Fuc(a1-2)Gal(b1-4)[Fuc(a1-3)]GlcNAc(b1-4)]Man(a1-3)[Fuc(a1-2)Gal(b1-4)[Fuc(a1-3)]GlcNAc(b1-2)Man(a1-6)]Man(b1-4)GlcNAc(b1-4)GlcNAc
In short: as §1

[11] = target: Fuc(a1-2)Gal(b1-4)[Fuc(a1-3)]GlcNAc(b1-3)Gal(b1-4)[Fuc(a1-3)]GlcNAc
In short: as §1

[12] = target: Fuc(a1-2)Gal(b1-4)[Fuc(a1-3)]GlcNAc(b1-3)Gal(b1-4)[Fuc(a1-3)]GlcNAc(b1-3)Gal(b1-4)[Fuc(a1-3)]GlcNAc
In short: as §1

[13] = target: Fuc(a1-2)Gal(b1-4)[Fuc(a1-3)]GlcNAc(b1-3)GalNAc
In short: as §1

[14] = target: Fuc(a1-2)Gal(b1-4)[Fuc(a1-3)]GlcNAc(b1-3)[Neu5Ac(a2-6)Gal(b1-4)GlcNAc(b1-6)]Gal(b1-4)Glc
In short: as §1

[15] = target: Fuc(a1-2)Gal3S(b1-4)GlcNAc
In short: as §1

[16] = target: Fuc(a1-2)Gal6S(b1-3)GlcNAc
In short: as §1

[17] = target: Fuc(a1-2)Gal6S(b1-3)GlcNAc6S
In short: as §1

[18] = target: Fuc(a1-2)Gal6S(b1-4)Glc
In short: as §1

[19] = target: Fuc(a1-2)Gal6S(b1-4)Glc6S
In short: as §1

[20] = target: Fuc(a1-2)[Gal(a1-3)]Gal
In short: as §1

[21] = target: Fuc(a1-2)[Gal(a1-3)]Gal(b1-3)GalNAc
In short: as §1

[22] = target: Fuc(a1-2)[Gal(a1-3)]Gal(b1-3)GalNAc(b1-3)Gal(a1-4)Gal(b1-4)Glc
In short: as §1

[23] = target: Fuc(a1-2)[Gal(a1-3)]Gal(b1-3)GlcNAc
In short: as §1

[24] = target: Fuc(a1-2)[Gal(a1-3)]Gal(b1-3)GlcNAc(b1-2)Man(a1-3)[Fuc(a1-2)[Gal(a1-3)]Gal(b1-3)GlcNAc(b1-2)Man(a1-6)]Man(b1-4)GlcNAc(b1-4)GlcNAc
In short: as §1

[25] = target: Fuc(a1-2)[Gal(a1-3)]Gal(b1-3)GlcNAc(b1-2)Man(a1-3)[Fuc(a1-2)[Gal(a1-3)]Gal(b1-3)GlcNAc(b1-2)Man(a1-6)]Man(b1-4)GlcNAc(b1-4)[Fuc(a1-6)]GlcNAc
In short: as §1

[26] = target: Fuc(a1-2)[Gal(a1-3)]Gal(b1-3)GlcNAc(b1-3)GalNAc
In short: as §1

[27] = target: Fuc(a1-2)[Gal(a1-3)]Gal(b1-3)GlcNAc(b1-6)GalNAc
In short: as §1

[28] = target: Fuc(a1-2)[Gal(a1-3)]Gal(b1-4)Glc
In short: as §1

[29] = target: Fuc(a1-2)[Gal(a1-3)]Gal(b1-4)GlcNAc
In short: as §1

[30] = target: Fuc(a1-2)[Gal(a1-3)]Gal(b1-4)GlcNAc(b1-2)Man
In short: as §1

[31] = target: Fuc(a1-2)[Gal(a1-3)]Gal(b1-4)GlcNAc(b1-2)Man(a1-3)[Fuc(a1-2)[Gal(a1-3)]Gal(b1-4)GlcNAc(b1-2)Man(a1-6)]Man(b1-4)GlcNAc(b1-4)GlcNAc
In short: as §1

[32] = target: Fuc(a1-2)[Gal(a1-3)]Gal(b1-4)GlcNAc(b1-2)Man(a1-3)[Fuc(a1-2)[Gal(a1-3)]Gal(b1-4)GlcNAc(b1-2)Man(a1-6)]Man(b1-4)GlcNAc(b1-4)[Fuc(a1-6)]GlcNAc
In short: as §1

[33] = target: Fuc(a1-2)[Gal(a1-3)]Gal(b1-4)GlcNAc(b1-3)GalNAc
In short: as §1

[34] = target: Fuc(a1-2)[Gal(a1-3)]Gal(b1-4)GlcNAc(b1-6)GalNAc
In short: as §1

[35] = target: Fuc(a1-2)[Gal(a1-3)]Gal(b1-4)[Fuc(a1-3)]Glc
In short: as §1

[36] = target: Fuc(a1-2)[Gal(a1-3)]Gal(b1-4)[Fuc(a1-3)]GlcNAc
In short: as §1

[37] = target: Fuc(a1-2)[Gal(a1-3)]Gal(b1-4)[Fuc(a1-3)]GlcNAc(b1-3)GalNAc
In short: as §1

[38] = target: Fuc(a1-2)[Gal(a1-4)]Gal(b1-4)GlcNAc
In short: as §1

[39] = target: Fuc(a1-2)[GalNAc(a1-3)]Gal
In short: as §1

[40] = target: Fuc(a1-2)[GalNAc(a1-3)]Gal(b1-3)GalNAc(a1-3)[Fuc(a1-2)]Gal(b1-4)GlcNAc
In short: as §1

[41] = target: Fuc(a1-2)[GalNAc(a1-3)]Gal(b1-3)GalNAc(b1-3)Gal(a1-4)Gal(b1-4)Glc
In short: as §1

[42] = target: Fuc(a1-2)[GalNAc(a1-3)]Gal(b1-3)GlcNAc
In short: as §1

[43] = target: Fuc(a1-2)[GalNAc(a1-3)]Gal(b1-3)GlcNAc(b1-2)Man(a1-3)[Fuc(a1-2)[GalNAc(a1-3)]Gal(b1-3)GlcNAc(b1-2)Man(a1-6)]Man(b1-4)GlcNAc(b1-4)GlcNAc
In short: as §1

[44] = target: Fuc(a1-2)[GalNAc(a1-3)]Gal(b1-3)GlcNAc(b1-2)Man(a1-3)[Fuc(a1-2)[GalNAc(a1-3)]Gal(b1-3)GlcNAc(b1-2)Man(a1-6)]Man(b1-4)GlcNAc(b1-4)[Fuc(a1-6)]GlcNAc
In short: as §1

[45] = target: Fuc(a1-2)[GalNAc(a1-3)]Gal(b1-3)GlcNAc(b1-3)GalNAc
In short: as §1

B1: Langerin K313I (Homo sapiens), Q9UJ71 (protein)
chain: STLNAQIPELKSDLEKASALNTKIRALQGSLENMSKLLKRQNDILQVVSQGWKYFKGNFYYFSLIPKTWYSAEQFCVSRNSHLTSVTSESEQEFLYKTAGGLIYWIGLTKAGMEGDWSWVDDTPFNKVQSARFWIPGEPNNAGNNEHCGNIKAPSLQAWNDAPCDITFLFICKRPYVPSEP
- glycan array binding signal (z-score) [1]: 0.009
- glycan array binding signal (z-score) [2]: -0.131
- glycan array binding signal (z-score) [3]: 0.031
- glycan array binding signal (z-score) [4]: 0.102
- glycan array binding signal (z-score) [5]: -0.324
- glycan array binding signal (z-score) [6]: 0.16
- glycan array binding signal (z-score) [7]: -0.329
- glycan array binding signal (z-score) [8]: -0.24
- glycan array binding signal (z-score) [9]: 0.218
- glycan array binding signal (z-score) [10]: 0.355
- glycan array binding signal (z-score) [11]: -0.194
- glycan array binding signal (z-score) [12]: -0.042
- glycan array binding signal (z-score) [13]: 0.245
- glycan array binding signal (z-score) [14]: -0.355
- glycan array binding signal (z-score) [15]: -0.331
- glycan array binding signal (z-score) [16]: -0.333
- glycan array binding signal (z-score) [17]: -0.086
- glycan array binding signal (z-score) [18]: -0.226
- glycan array binding signal (z-score) [19]: -0.099
- glycan array binding signal (z-score) [20]: 4.11
- glycan array binding signal (z-score) [21]: -0.254
- glycan array binding signal (z-score) [22]: -0.364
- glycan array binding signal (z-score) [23]: -0.303
- glycan array binding signal (z-score) [24]: -0.164
- glycan array binding signal (z-score) [25]: 0.373
- glycan array binding signal (z-score) [26]: 0.015
- glycan array binding signal (z-score) [27]: -0.062
- glycan array binding signal (z-score) [28]: -0.289
- glycan array binding signal (z-score) [29]: -0.332
- glycan array binding signal (z-score) [30]: -0.379
- glycan array binding signal (z-score) [31]: -0.102
- glycan array binding signal (z-score) [32]: 0.266
- glycan array binding signal (z-score) [33]: 0.065
- glycan array binding signal (z-score) [34]: -0.149
- glycan array binding signal (z-score) [35]: -0.335
- glycan array binding signal (z-score) [36]: -0.052
- glycan array binding signal (z-score) [37]: 0.214
- glycan array binding signal (z-score) [38]: -0.287
- glycan array binding signal (z-score) [39]: 1.78
- glycan array binding signal (z-score) [40]: -0.36
- glycan array binding signal (z-score) [41]: -0.245
- glycan array binding signal (z-score) [42]: -0.341
- glycan array binding signal (z-score) [43]: -0.153
- glycan array binding signal (z-score) [44]: 0.282
- glycan array binding signal (z-score) [45]: 0.155

Reference: the supplement of paper PMC8728848
